In PubChem BioAssay AID624296 (National Center for Advancing Translational Sciences (NCATS), 2012):
In all, about 350,000 compounds went through this assay and about 9,900 (2.8%) were called active. The inconclusive results got no clear call from the source; some entries with a clear call stand among them for comparison. Calls follow the shape of the dose curve; as a rule, active = well fitted activation curve with a large enough effect; inconclusive = small, poorly fitted or top-dose-only effect; inactive = no such curve, though single readings can be large or run the other way. No potency is given beside an inconclusive call; the fits are too rough.
Potency is read from the fitted curve at half-maximal effect; tags tell the direction and shape of the fitted curve.

Experiment: A quantitative high throughput screen for small molecules that induce DNA re-replication in MCF 10a normal breast cells. Also: nearly all actives have a fitted effect of over 50% in size.
Settings: MCF 10A DNA re-replication, Hoechst nuclear intensity, 48 h; series mostly up to 46.1 µM
For `C=CCNc1oc(-c2ccc(Cl)cc2)nc1C#N`, the Potency was inconclusive [activator, single point]. For `C/C(=N\NC(=O)c1ccc(N2CCCC2=O)cc1)c1ccc(O)cc1O`, the Potency was “inactive”. For `CN(CC(=O)Nc1ccc2c(c1)OCO2)CC(=O)Nc1ccc(F)c(F)c1F`, the Potency was “inactive”. For `COc1ccc(OC)c(Cc2cnc3nc(N)nc(N)c3c2C)c1`, the Potency was “inactive”. In the case of `O=S1(=O)C=CC(Nc2cccc(Cl)c2)C1` (configuration not stated), the Potency is reported as “inactive”. With `CC1CCN(CC(=O)N2CCCc3c2c(=O)oc2ccc(OCc4ccccc4)cc32)CC1` the Potency was active: 11.2 µM. With `O=C(NCc1ccc(Cl)cc1)C(=O)NCC1OCCN1C(=O)c1ccc(Cl)cc1` (configuration not stated) the Potency was “inactive”. In the case of `C=C(C)c1nc(N)nc(N)n1`, the Potency is reported as inconclusive [activator, partial curve, poor fit]. With `CC(C)(C)S(=O)N1Cc2cc(=O)n(Cc3ccccc3)c(CCO)c2[C@H]1CCO` (some centres not stated) the Potency was inconclusive [activator, single point]. With `Cc1ccc(S(=O)(=O)Nc2cc(C(F)(F)F)ccc2N2CCOCC2)c(C)c1` the Potency was inconclusive [activator, single point]. In the case of `COc1ccccc1NC(=O)c1nc(S(=O)(=O)Cc2ccccc2)ncc1Cl`, the Potency is reported as inconclusive [activator, full curve, poor fit]. For `COCC(C)OC(=O)/C(C#N)=C\c1coc2ccc(C)cc2c1=O` (configuration not stated), the Potency was inconclusive [activator, single point]. With `O=C(CSc1nc(-c2ccc(Cl)cc2)cs1)Nc1cccc([N+](=O)[O-])c1` the Potency was “inactive”. With `S=C1NCCN1CC1CCN(CC2CCCC2)CC1` the Potency was inconclusive [activator, single point]. In the case of `CC(C)(C)N(C(=O)Cn1nnc(-c2ccc(F)cc2)n1)C(C(=O)NC1CCCC1)c1ccncc1` (configuration not stated), the Potency is reported as “inactive”. In the case of `CC1CCN(CCCNC(=O)c2ccc(CSCc3cccc(Cl)c3)o2)CC1`, the Potency is reported as inconclusive [activator, partial curve, poor fit]. With `COc1ccc(-c2cc(-c3nc4ccccn4c3NCc3ccccc3)ccc2OC)cc1` the Potency was active: 5.8 µM. With `N=c1n(CCN2CCCCC2)c2ccccc2n1CC(O)c1ccc(Cl)c(Cl)c1` (configuration not stated) the Potency was inconclusive [activator, single point]. In the case of `O=C(CSc1nnc(-c2ccccc2)c(-c2ccccc2)n1)N1CCc2ccccc21`, the Potency is reported as inconclusive [activator, partial curve]. For `O=C(CSc1nnc2ccc(-c3cccnc3)nn12)Nc1ccc(F)cc1F`, the Potency was “inactive”. In the case of `O=C(NCc1ccco1)c1cccc(Nc2nc3ccc(Br)cc3[nH]2)c1`, the Potency is reported as inconclusive [activator, partial curve, poor fit]. For `CCC(C(=O)NC1CCCC1)N(C(=O)c1snc(C(N)=O)c1N)c1ccc(C)cc1C` (configuration not stated), the Potency was “inactive”. With `COc1cccc(CN2CCN(Cc3cc4ccccc4[nH]3)CC2CCO)c1` (configuration not stated) the Potency was inconclusive [activator, single point]. For `N=c1sccn1CC(=O)Nc1cc(S(=O)(=O)N2CCCC2)ccc1Cl`, the Potency was “inactive”. With `CCN(CC)CC(O)COc1ccccc1C(=O)CCc1ccccc1` (configuration not stated) the Potency was inconclusive [activator, partial curve, poor fit]. With `CCCCCn1c(N)c(-c2nc3ccccc3s2)c2c([N+](=O)[O-])nn(C)c(=O)c21` the Potency was inconclusive [activator, single point]. In the case of `CC(N)C(=O)NC(C(=O)N1CCCC1C(=O)NC(c1ccccc1)c1ccccc1)C(C)C` (configuration not stated), the Potency is reported as “inactive”. In the case of `COc1ccc(-n2nc(C(=O)Nc3ccc(OC)c(OC)c3)c3c4ccccc4n(C)c3c2=O)cc1`, the Potency is reported as inconclusive [activator, partial curve]. With `CN(C)c1cc[n+](CC(=O)Nc2c(Cl)cc(Cl)cc2Cl)cc1` the Potency was “inactive”. In the case of `CCOc1ccc(CC(=O)NNC(=S)NC2CCCCC2)cc1OCC`, the Potency is reported as inconclusive [activator, single point]. In the case of `O=C(Nc1ccc(-n2cccn2)cc1)C1CCCCN1Cc1cccc2c1OCO2` (configuration not stated), the Potency is reported as active: 3.66 µM. For `COc1ccc(Cl)cc1C(=O)NNC(=O)c1csc(N2CCOCC2)n1`, the Potency was “inactive”. In the case of `O=[N+]([O-])c1ccccc1CCc1ccccc1[N+](=O)[O-]`, the Potency is reported as “inactive”. In the case of `O=C(NC(=S)Nc1ccccc1O)c1ccc(Cl)cc1Cl`, the Potency is reported as inconclusive [activator, single point]. With `Fc1ccc(CN2CCN(c3ncnc4scc(-c5ccc(F)cc5)c34)CC2)cc1` the Potency was inconclusive [activator, single point]. With `CN(CC(=O)Nc1ccc2c(c1)CCC2)CC(=O)Nc1ccccc1Br` the Potency was inconclusive [activator, full curve, poor fit]. In the case of `Cn1c(N)nc2nc(CCc3ccccc3)c(=O)[nH]c2c1=O`, the Potency is reported as inconclusive [activator, single point]. For `Cc1cccc(NC(=O)c2ccc3ccccc3n2)c1C`, the Potency was “inactive”. With `COc1ccc(CC(=O)Nc2ccc3c(c2)CCC3)cc1S(=O)(=O)N1CCOCC1` the Potency was inconclusive [activator, full curve, poor fit]. For `CCCN(CCC)C1=CC(=[N+]2CCCC2)CC(C)(C)C1`, the Potency was “inactive”. In the case of `CCOc1ccccc1/C=C/c1nc2ccccc2[nH]c1=O`, the Potency is reported as inconclusive [activator, single point]. For `O=C(O)c1cc2ccccc2c(N=Nc2cccnc2)c1O`, the Potency was inconclusive [activator, single point]. For `COc1cccc(CC(=O)OC(C)C(=O)Nc2ccc(N3CCOCC3)cc2)c1` (configuration not stated), the Potency was “inactive”. With `Cc1ccc(-n2ncc3c(NNC(=O)Cc4ccccc4)ncnc32)cc1` the Potency was active: 23.1 µM. In the case of `COc1ccc(C[C@@H]2OC3(C=CC(=O)C=C3)O[C@H]2Cc2ccc(OC)cc2)cc1`, the Potency is reported as active: 0.731 µM. For `N#CCS(=O)(=O)c1ccccc1`, the Potency was inconclusive [activator, full curve, poor fit]. In the case of `Cc1cc(C)cc(NC(=O)Cn2nnc(C(=O)NCCc3ccccc3)c2N)c1`, the Potency is reported as inconclusive [activator, partial curve, poor fit]. In the case of `Cc1nn(-c2ccccc2)c(C)c1S(=O)(=O)O`, the Potency is reported as “inactive”. With `O=S(=O)(c1cccc(C(F)(F)F)c1)N1CCC(CO)(CCCc2ccccc2)CC1` the Potency was inconclusive [activator, single point]. For `c1ccc(-n2cnc3cc(NCc4cccs4)ccc32)cc1`, the Potency was inconclusive [activator, single point]. With `COC(=O)COc1ccc(NC(=O)c2ccco2)cc1` the Potency was inconclusive [activator, full curve]. For `CC(Sc1nnnn1C)C(=O)Nc1nc(-c2ccc(F)c(F)c2)cs1` (configuration not stated), the Potency was inconclusive [activator, single point]. For `COc1cc(-c2noc(C)c2C(=O)NCCCN2CCOCC2)cc(OC)c1OC`, the Potency was inconclusive [activator, full curve]. For `COc1ncccc1-c1nnn(-c2ccccc2)n1`, the Potency was “inactive”. For `O=C(N/N=C/C1CC=CCC1)c1cc2ccccc2cc1O` (configuration not stated), the Potency was inconclusive [activator, partial curve, poor fit]. In the case of `OCC(CO)(CO)N=Cc1c(O)ccc2ccccc12`, the Potency is reported as active: 8.2 µM. In the case of `COc1ccc(CCNC(=O)COC(=O)C2CC2)cc1OC`, the Potency is reported as “inactive”. With `CC(C)(Cc1ccc(O)cc1)NC(=O)CC(=O)N/N=C/c1ccc(Cl)cc1` the Potency was active: 13 µM. For `COc1ccccc1/C=N/NC(=O)c1ccccc1NS(=O)(=O)c1ccc(C)cc1`, the Potency was “inactive”. In the case of `Cc1nn(CC(=O)NCCCN2CCC(Cc3ccccc3)CC2)c(=O)c2cc(-c3ccccc3)nn12`, the Potency is reported as “inactive”. For `O=C(/C=C/Nc1ccccc1)c1cnc(-c2ccccc2)s1`, the Potency was inconclusive [activator, full curve]. For `COc1ccc(-c2cc(C)no2)cc1S(=O)(=O)NCC1CCN(Cc2cc(C)ccc2C)CC1`, the Potency was inconclusive [activator, partial curve, poor fit]. With `Cc1ccc(C(=O)Nc2ccc(N3CCOCC3)c3nonc23)cc1[N+](=O)[O-]` the Potency was “inactive”. In the case of `COc1ccc(-c2c(-c3cc(OC)cc(OC)c3)sc3ccc(OC)cc23)cc1`, the Potency is reported as inconclusive [activator, single point]. In the case of `Cc1ccc(S(=O)(=O)c2c(C)nn(-c3ccccc3)c2OC(=O)c2ccco2)cc1`, the Potency is reported as inconclusive [activator, single point]. With `CC1CCCN(CC(=O)Nc2cc(Cl)ccc2Oc2ccccc2)C1` (configuration not stated) the Potency was active: 18.4 µM. With `CC1(c2ccc3ccccc3c2)NC(=O)N(CC(=O)N2CCN(Cc3ccccc3)CC2)C1=O` (configuration not stated) the Potency was inconclusive [activator, full curve, poor fit]. For `Cc1cc(C)c(S(=O)(=O)N2CCN(C(=O)c3cc4ccccc4oc3=O)CC2)c(C)c1`, the Potency was inconclusive [activator, single point]. For `FC(F)(F)c1cccc(Cc2noc(CN3CCC(N4CCCCC4)CC3)n2)c1`, the Potency was inconclusive [activator, full curve, poor fit]. In the case of `COCCNC(=O)c1cn(C)c2ccc(S(=O)(=O)N3CCCC3)cc2c1=O`, the Potency is reported as inconclusive [activator, single point]. In the case of `CC(C)OC(=O)c1cc(NC(=O)C2C3CCC(O3)C2C(=O)O)cc(C(=O)OC(C)C)c1` (configuration not stated), the Potency is reported as inconclusive [activator, full curve, poor fit]. In the case of `O=C(Cc1ccc2c(c1)OCO2)NN=Cc1ccc([N+](=O)[O-])o1`, the Potency is reported as inconclusive [activator, single point].
